Reference: PubChem BioAssay AID1159554 (Broad Institute, 2015)
The whole screen tested about 94,000 compounds, of which about 2,100 (2.2%) were called active. The inconclusive results got no clear call from the source; some entries with a clear call stand among them for comparison. Rule as the data show it: active = activity change below about -80%; inconclusive = no clear call, values can overlap the other calls; inactive = above that.

assay: P. falciparum Dd2 growth inhibitors, primary screen, SYBR Green fluorescence, single dose replicates (AID 1159554); details: 72 h, at 10 µM, active compounds read low

Activity change, active:
Cc1cc(C(=O)Nc2cccc3c2O[C@@H](CN(C)Cc2ccc(C(=O)Nc4ccccc4N)cc2)[C@H](C)CN([C@H](C)CO)C3=O)n(C)n1 -92.4%, COc1ccc(NC(=O)N(C)C[C@H]2Oc3c(NC(=O)Nc4ccccc4)cccc3C(=O)N([C@@H](C)CO)C[C@H]2C)cc1 -89%, COc1ccc2c3c(n(C)c2c1)[C@@H](CO)N(C(=O)Nc1ccc(F)cc1)CC31CN(C(=O)c2ccccc2F)C1 -91.8%, C[C@@H]1CN([C@H](C)CO)C(=O)c2cccc(NC(=O)CCCCCC(=O)Nc3ccccc3N)c2O[C@H]1CN(C)Cc1ccc(C(F)(F)F)cc1 -91.7%, Cc1ccc(S(=O)(=O)N(C)C[C@@H]2OCCCC[C@H](C)Oc3ccc(NC(=O)NC4CCCCC4)cc3C(=O)N([C@@H](C)CO)C[C@@H]2C)cc1 -83.2%, COc1ccc2c3c([nH]c2c1)[C@H](CO)N(Cc1ccncc1)CC31CN(Cc2ccc(-c3ccccn3)cc2)C1 -89.2%, Cc1noc(C)c1S(=O)(=O)N(C)C[C@H]1OCCCC[C@H](C)Oc2ccc(NC(=O)c3ccccc3)cc2C(=O)N([C@@H](C)CO)C[C@@H]1C -86.5%, C[C@@H]1CCCCO[C@@H](CN(C)Cc2ccc(Cl)c(Cl)c2)[C@H](C)CN([C@H](C)CO)C(=O)c2cc(NC(=O)C3CCCCC3)ccc2O1 -83.5%, COc1ccc(CN(C)C[C@H]2OCCCC[C@@H](C)Oc3ccc(NC(=O)Nc4cccc5ccccc45)cc3C(=O)N([C@H](C)CO)C[C@H]2C)cc1 -86.7%, C[C@@H]1CN([C@H](C)CO)C(=O)c2c(c3ccccc3n2C)-c2ccccc2CO[C@H]1CN(C)S(=O)(=O)c1ccc(Cl)cc1 -84.1%, CO[C@H]1CN(C)C(=O)c2cc(NC(C)=O)ccc2OC[C@H](C)N(Cc2ccncc2)C[C@H]1C -80.4%

Activity change, inactive:
Cc1ccc(S(=O)(=O)N(C)C[C@@H]2Oc3ccc(NC(=O)Nc4cccc5ccccc45)cc3C(=O)N([C@@H](C)CO)C[C@@H]2C)cc1 -43.9%, COCC(=O)N1CCCCN2[C@H](C1)[C@H](c1ccc(C#Cc3ccccc3)cc1)[C@@H]2CO 0.334%, COc1ccc(S(=O)(=O)N(C)C[C@@H]2OCCCC[C@H](C)Oc3ccc(NC(=O)Nc4ccc(F)cc4)cc3C(=O)N([C@H](C)CO)C[C@H]2C)cc1 -79.7%, C[C@H](CO)N1C[C@H](C)[C@H](CN(C)S(=O)(=O)c2ccc(Cl)cc2)OCCCC[C@H](C)Oc2ccc(NC(=O)Nc3ccc(F)cc3)cc2C1=O -56.2%, O=S(=O)(Cc1ccccc1)N1CCCCN2[C@@H](CO)[C@@H](c3ccc(-c4cncnc4)cc3)[C@@H]2C1 -14.4%, COc1cccc(S(=O)(=O)N2CCCCN3[C@H](CO)[C@@H](c4ccc(-c5ccccc5)cc4)[C@@H]3C2)c1 -45.3%, O=C([C@@H]1[C@@H](CO)[C@@H]2Cn3c(cccc3=O)[C@@H]2N1Cc1ccccc1)N1CCCCC1 -4.54%, Cc1ccc(S(=O)(=O)N(C)C[C@@H]2Oc3ccc(NS(C)(=O)=O)cc3CC(=O)N([C@H](C)CO)C[C@H]2C)cc1 -63.8%, COc1ccccc1-c1cn(CC[C@H]2CC[C@H](NC(=O)CCN3CCCCC3)[C@H](CO)O2)nn1 -18.1%, CCCC#Cc1ccc([C@H]2[C@@H](CO)N3CCCCN(S(=O)(=O)c4ccccc4C)C[C@@H]23)cc1 -73.4%

Activity change, inconclusive:
COc1ccccc1-c1ccc2c(c1)O[C@@H](CN(C)S(=O)(=O)c1ccccc1)[C@H](C)CN([C@@H](C)CO)S2(=O)=O -81.1%, COc1cccc(NC(=O)N(C)C[C@@H]2Oc3cc(C#Cc4ccccc4)ccc3S(=O)(=O)N([C@H](C)CO)C[C@H]2C)c1 -80.3%, COc1ccc(S(=O)(=O)N(C)C[C@H]2OCCCC[C@H](C)Oc3ccc(NC(=O)Nc4ccccc4)cc3C(=O)N([C@H](C)CO)C[C@H]2C)cc1 -80.2%, C[C@@H]1CCCCO[C@H](CN(C)C(=O)Nc2ccc(F)cc2)[C@@H](C)CN([C@@H](C)CO)C(=O)c2cc(NS(=O)(=O)c3ccc(F)cc3)ccc2O1 -81.3%, C[C@@H]1CCCCO[C@H](CN(C)CC2CCCCC2)[C@H](C)CN([C@H](C)CO)C(=O)c2cc(NC(=O)CCCN(C)C)ccc2O1 -80.7%, COc1ccc2c3c([nH]c2c1)[C@@H](CO)N(C(=O)CN(C)C)CC31CCN(Cc2ccccc2)CC1 -84.4%, C[C@@H]1CN([C@H](C)CO)C(=O)c2cc(NC(=O)Nc3cccc4ccccc34)ccc2O[C@@H](C)CCCCO[C@@H]1CN(C)C(=O)Cc1ccccc1 -81.8%, OC[C@@H]1CC[C@@H]2O[C@H](CCc3ccc(-c4ccccc4)cc3)[C@H](n3cc(-c4ccccc4)nn3)C[C@@H]2O1 -83.4%, COc1ccc(S(=O)(=O)N(C)C[C@H]2OCCCC[C@H](C)Oc3ccc(NC(=O)C4CCCCC4)cc3C(=O)N([C@@H](C)CO)C[C@@H]2C)cc1 -81.3%, COc1ccc(S(=O)(=O)N(C)C[C@H]2Oc3ccc(NC(=O)Cc4cn(C)c5ccccc45)cc3C(=O)N([C@H](C)CO)C[C@@H]2C)cc1 -80.2%, C[C@H]1CN([C@@H](C)CO)C(=O)CCCn2nncc2CO[C@H]1CN(C)C(=O)Nc1ccc(N2CCCCC2)cc1 -82.1%, CCC(=O)N1CC2(C1)CN(Cc1ccc(Cl)cc1)[C@H](CO)c1[nH]c3cc(OC)ccc3c12 -81.3%, COc1ccc2c3c(n(C)c2c1)[C@H](CO)N(C(=O)Nc1ccc(F)cc1)CC31CN(Cc2ccccc2F)C1 -82.5%, Cc1cccc(S(=O)(=O)N2CCCCN3[C@@H](CO)[C@@H](c4ccc(-c5ccccc5)cc4)[C@@H]3C2)c1 -80.5%, C[C@@H]1CN([C@@H](C)CO)C(=O)c2cc(NC(=O)Cc3ccccc3)ccc2O[C@@H](C)CCCCO[C@H]1CN(C)Cc1ccc2c(c1)OCO2 -83.6%, CN(C)CC(=O)Nc1ccc2c(c1)[C@@H]1C[C@H](CC(=O)N3CCOCC3)O[C@@H](CO)[C@@H]1O2 -81.1%, COc1cccc(CN2CC3(C2)CN(C(=O)C2CC2)[C@H](CO)c2c3c3ccc(OC)cc3n2C)c1 -81.3%, COc1ccc(S(=O)(=O)N(C)C[C@@H]2Oc3ccc(NS(=O)(=O)c4ccc(Cl)cc4)cc3CC(=O)N([C@@H](C)CO)C[C@H]2C)cc1 -80.8%, C[C@@H](C(=O)N(C)C[C@H]1OCc2ccccc2-c2ccccc2C(=O)N([C@@H](C)CO)C[C@@H]1C)c1ccccc1 -82.4%, COc1cccc(NC(=O)N(C)C[C@H]2Oc3cc(C#Cc4ccccc4)ccc3S(=O)(=O)N([C@@H](C)CO)C[C@H]2C)c1 -82.3%, COc1ccc(S(=O)(=O)Nc2ccc3c(c2)C(=O)N([C@@H](C)CO)C[C@H](C)[C@@H](CN(C)C(=O)Nc2cccc4ccccc24)OCCCC[C@@H](C)O3)cc1 -80.5%, C[C@@H]1CCCCO[C@@H](CN(C)Cc2ccc(C(=O)Nc3ccccc3N)cc2)[C@@H](C)CN([C@H](C)CO)C(=O)c2cc(NS(=O)(=O)c3cccs3)ccc2O1 -81.5%, COc1ccc(S(=O)(=O)N(C)C[C@H]2Oc3cc(C#CC4CCCC4)ccc3S(=O)(=O)N([C@@H](C)CO)C[C@@H]2C)cc1 -82.2%, COc1ccc(NC(=O)N(C)C[C@H]2Oc3c(NC(=O)C4CC4)cccc3C(=O)N([C@@H](C)CO)C[C@H]2C)cc1 -81%, C[C@@H]1CN([C@@H](C)CO)S(=O)(=O)c2ccc(C#CC3CCCC3)cc2O[C@H]1CN(C)C(=O)c1cccc(F)c1 -81.2%, COc1ccc(S(=O)(=O)N(C)C[C@@H]2Oc3ncc(/C=C/c4ccccc4)cc3C(=O)N([C@H](C)CO)C[C@@H]2C)cc1 -81.4%, CC(C)NC(=O)N1CCCCN2[C@H](CO)[C@@H](c3ccc(C#C[C@@H](C)O)cc3)[C@@H]2C1 -80.2%, C[C@@H]1CN([C@@H](C)CO)S(=O)(=O)c2ccc(C#Cc3ccc(F)cc3)cc2O[C@H]1CN(C)C(=O)NC1CCCC1 -80.7%, C[C@H]1CCCCO[C@@H](CN(C)CC2CC2)[C@@H](C)CN([C@@H](C)CO)C(=O)c2cc(NS(=O)(=O)c3ccccc3)ccc2O1 -80.6%, COc1cccc(-c2ccc([C@H]3[C@H](CO)N4CCCCN(CC5CC5)C[C@@H]34)cc2)c1 -80.6%, C[C@@H]1CN([C@H](C)CO)C(=O)Cc2cc(NC(=O)Nc3cccc4ccccc34)ccc2O[C@@H]1CN(C)C(=O)Nc1cccc2ccccc12 -84.8%, C[C@H](CO)N1C[C@H](C)[C@@H](CN(C)Cc2ccc(-c3ccccc3)cc2)Oc2ccc(NC(=O)Nc3ccc(C(F)(F)F)cc3)cc2CC1=O -80%, COc1ccc(NC(=O)Nc2ccc3c(c2)C(=O)N([C@@H](C)CO)C[C@H](C)[C@H](CN(C)C(=O)C2CCCCC2)OCCCC[C@H](C)O3)cc1 -84%
